In a compilation of properties of binary mixtures (doi:10.1007/s10953-016-0518-2):
The densities may have been worked out from excess volumes.

Assay: xn = mol fraction of the nth substance listed
Conditions: 101 kPa

CC[n+]1ccn(C)c1.F[B-](F)(F)F + OCCO
mass density [kg/m3]
Conditions	x1 = 0.0993	x1 = 0.2001	x1 = 0.3023	x1 = 0.4011	x1 = 0.5003	x1 = 0.598	x1 = 0.7003	x1 = 0.7997	x1 = 0.8997	x1 = 1
303.15 K	1143.9	1171	1192.4	–	1223.3	1235.3	1246.6	1256.5	1265.7	1272.8
313.15 K	1136.4	1163.3	1184.5	–	1215.4	1227.5	1238.8	–	1258.1	1265.2
323.15 K	1128.9	1155.6	1176.7	1193.4	1207.6	1219.7	1231.2	–	1250.6	1257.7
333.15 K	–	–	1168.9	1185.6	1199.9	1212.1	1223.6	–	1243.1	1250.3
